In all, about 33,000 sequences were measured (“E-score (-0.5 to 0.5)”: median about -0.032, highest 2% from about 0.36 on). The list shows a part of the results.
Molecular target: T1, Sko1 (UniProt Q02100)
T1 sequence: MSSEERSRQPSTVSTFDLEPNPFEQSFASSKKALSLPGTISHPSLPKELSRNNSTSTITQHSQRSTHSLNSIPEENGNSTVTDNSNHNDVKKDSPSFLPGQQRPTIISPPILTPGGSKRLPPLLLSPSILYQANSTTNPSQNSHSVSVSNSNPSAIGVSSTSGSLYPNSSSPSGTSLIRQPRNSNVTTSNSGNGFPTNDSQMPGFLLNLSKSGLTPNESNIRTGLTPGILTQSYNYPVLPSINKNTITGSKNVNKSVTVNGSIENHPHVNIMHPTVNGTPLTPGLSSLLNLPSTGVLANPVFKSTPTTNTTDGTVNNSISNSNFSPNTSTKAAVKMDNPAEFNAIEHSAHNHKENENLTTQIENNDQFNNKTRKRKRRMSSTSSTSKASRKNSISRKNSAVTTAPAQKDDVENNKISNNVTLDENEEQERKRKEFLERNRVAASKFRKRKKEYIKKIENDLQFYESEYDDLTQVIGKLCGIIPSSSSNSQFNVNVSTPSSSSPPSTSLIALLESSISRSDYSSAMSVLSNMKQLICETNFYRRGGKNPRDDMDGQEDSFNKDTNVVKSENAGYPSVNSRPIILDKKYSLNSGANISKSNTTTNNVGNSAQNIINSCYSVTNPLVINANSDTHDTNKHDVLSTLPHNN
Experiment: PBM E-score (8-mer binding enrichment) (E-score (-0.5 to 0.5)); higher = stronger / more preferred TF binding; most listed sequences are background and not binding sites
Conditions: protein concentration: 200 nM; construct: GST-full length
Experimental: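 Universal 'all 10-mer' protein binding microarrays (Agilent AMADID 015681) probed with GST-tagged S. cerevisiae TFs (full-length or DBD) made by in vitro transcription/translation (PURExpress), about 100-200 nM. Bound TF was detected with fluorescent anti-GST. Each ungapped 8-mer (which stands for itself and its reverse complement) is scored by the PBM enrichment score (E-score), a modified Wilcoxon-Mann-Whitney statistic from -0.5 to +0.5, computed with the Universal PBM Analysis Suite. Scale: above 0.35 generally sequence-specific binding.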

| Sequence | PBM E-score |
| --- | --- |
| CGCATAGA | -0.15 |
| CACTTGAA | 0.0535 |
| AAACGCTT | 0.077 |
| TCTTAACA | 0.0969 |
| TATGGCGA | 0.0668 |
| CCCGATGA | 0.0115 |
| ATAGAGAA | 0.0325 |
| ACAGGCAC | -0.0663 |
| CAGTCAAA | -0.00635 |
| CTAATCGA | -0.00313 |
| AATACCGA | -0.25 |
| ACTCTGAA | -0.0554 |
| CGTGACTA | 0.242 |
| CAATGCAG | 0.0232 |
| AGATAAGA | 0.193 |
| AGCGCAGC | -0.321 |
| CTTACAGA | -0.161 |
| ACGTAGGC | 0.425 |
| AGATACCG | 0.0467 |
| ACCTTAGG | -0.188 |
| GGCGTTAC | -0.0443 |
| ACGAAGGG | 0.129 |
| TACTTTCA | 0.0182 |
| CCGTCACA | 0.163 |
| CAATCGTC | 0.22 |

| Sequence | PBM E-score |
| --- | --- |
| CTTACATA | 0.207 |
| AAAGCTCT | -0.223 |
| AACCTATC | -0.186 |
| AGCGGAGG | -0.203 |
| CTTGGCTC | -0.165 |
| CCCCCTTA | -0.31 |
| AGCTTGAC | -0.139 |
| GAATCACA | 0.0598 |
| CCCTACTC | -0.0828 |
| AATCTACA | 0.198 |
| AGTGACAC | 0.191 |
| CGCTTAAC | -0.0195 |
| CAGACGAG | -0.202 |
| CCGCGCAG | -0.0518 |
| CCGTATCG | -0.171 |
| CCGTCGTC | -0.0549 |
| ATTCGCGC | 0.0774 |
| GGGCCACA | -0.261 |
| ATTGAATG | 0.075 |
| GACCGATC | -0.227 |
| AAGGTCCA | -0.266 |
| GTGTTGAA | 0.14 |
| CATAGGTC | 0.0182 |
| GGGCCCCA | -0.266 |
| AGAAGCCC | -0.154 |

| Sequence | PBM E-score |
| --- | --- |
| CGCAGACG | 0.131 |
| CAAGTACG | 0.135 |
| ATCCTGCA | 0.183 |
| AGTCCTCA | -0.218 |
| GGTGCTCA | -0.176 |
| AATCTAGA | 0.00671 |
| CGGACCGC | -0.281 |
| AGAAGCAC | -0.0239 |
| ATCTAACG | 0.176 |
| AGTAGGAC | -0.152 |
| ACGTTAAG | 0.325 |
| ACTGATAG | -0.0528 |
| TGCCACCA | -0.17 |
| CGGATACC | -0.0823 |
| ACCTAAGC | 0.0757 |
| CGTTCTCC | 0.0102 |
| AGATCAGA | -0.0691 |
| ACGTCCAC | 0.314 |
| AAAGGTAT | 0.0611 |
| AGCAGTCG | -0.0899 |
| ACCGAAAT | 0.0128 |
| AGCCACCC | -0.355 |
| GAACCAAA | -0.149 |
| AGCATAAA | 0.0727 |
| CAACTAAG | 0.0159 |

| Sequence | PBM E-score |
| --- | --- |
| GCTGCGCC | -0.315 |
| CAGCTGCA | -0.228 |
| CAAGTCTC | -0.19 |
| AGCCCTTC | -0.197 |
| TCTGGGCA | -0.222 |
| ACAAACAG | -0.0756 |
| AGCCGACT | -0.165 |
| CGCGCCGA | -0.11 |
| CCCGGCCA | -0.334 |
| GATAAGAA | 0.217 |
| TGAAGACA | 0.0964 |
| CGAGCATC | -0.211 |
| AGCCGTAC | 0.0111 |
| AGAACGAA | 0.0852 |
| GCCCTAGC | -0.218 |
| CATATTTA | 0.186 |
| AAGATAAT | 0.19 |
| CCGCGGTC | -0.247 |
| GCGGTCAA | -0.234 |
| TTTGCAAA | 0.0584 |
| GTCTAGCA | -0.00592 |
| TCACGTCA | 0.484 |
| GAAGTGCA | -0.08 |
| AGTGGGGC | -0.273 |
| TAAAGTGA | 0.255 |

| Sequence | PBM E-score |
| --- | --- |
| ACTCCAAG | -0.0313 |
| ACGGTAAA | 0.0336 |
| GAGTTGCC | -0.118 |
| ACCCTTGA | -0.0782 |
| ACAATGCG | 0.121 |
| ACAGTGTA | 0.0382 |
| AGTTGCGA | 0.156 |
| AACTGTCA | 0.038 |
| ACCTGCAG | -0.176 |
| CATCTCGC | -0.129 |
| AGCTAGTC | -0.00295 |
| CCCTCGAG | -0.232 |
| CCTATGAG | -0.025 |
| AAGACGTC | 0.419 |
| AAAAACGC | 0.141 |
| AGATGACG | 0.476 |
| AGAGCGAC | 0.0314 |
| GCCACGAA | -0.128 |
| ATACTTTC | 0.0725 |
| ACTCTGTC | 0.0399 |
| GTCAGCAC | -0.00835 |
| CTTGATAA | 0.0902 |
| CGCTCGCA | -0.0661 |
| AAAACAGA | 0.112 |
| ATATGTCC | -0.0276 |

| Sequence | PBM E-score |
| --- | --- |
| ACCCCCAT | -0.29 |
| CCGAACCC | -0.324 |
| CGTGGGAG | 0.0814 |
| CTTCCTAA | -0.0643 |
| CCGCACTA | -0.0619 |
| TAATCCAA | 0.198 |
| CCCGAGTA | -0.117 |
| CCCCAAAC | -0.266 |
| CCCTCTCA | -0.339 |
| ACTCGAAG | -0.183 |
| ACCGAGAG | -0.307 |
| AACGGACC | -0.224 |
| GCCGCTTA | -0.123 |
| CCGAAGAG | -0.149 |
| GGGCGTGA | 0.0355 |
| TATACAAA | 0.21 |
| GTCGACAA | 0.0253 |
| ACAAGTTC | 0.0278 |
| AGCTGTCG | -0.146 |
| CCAATGAG | -0.0961 |
| AATTACGC | 0.44 |
| CTGACGGC | -0.167 |
| ATCACAGA | -0.0306 |
| AGGCAAAA | -0.0629 |
| AGCCAGAT | -0.164 |

| Sequence | PBM E-score |
| --- | --- |
| GGAACTAA | -0.0195 |
| CGATAGTA | -0.089 |
| CTGTTTGC | 0.126 |
| CTACATGA | 0.0515 |
| CGATTGAA | 0.0268 |
| AGGCCACG | -0.0951 |
| TAGCGCGA | -0.0664 |
| ACGTGTTA | 0.434 |
| AGCGTTAA | -0.0246 |
| AGATAGCA | -0.0121 |
| AGAAGGAA | -0.235 |
| ATTGTTCA | 0.112 |
| CTAGGCGA | -0.279 |
| GACTTTAC | 0.151 |
| ACGGGAAC | -0.0328 |
| ACTGAGTG | -0.117 |
| GAAGTGTC | -0.14 |
| AGGTTTCA | -0.0467 |
| ACTAAGCA | 0.0365 |
| CCTGCTGC | -0.163 |
| CATTCTAA | 0.203 |
| AATCACTC | -0.0882 |
